Reference: the supplement of paper PMC10338343
± gives the standard deviation. This is a selection; strong and weak results do not stand in their true shares.

System: MIWI (PIWIL1) piRISC loaded with piRNA #1 (30 nt)
Experiment: pre-steady-state target cleavage rate (min^-1); MIWI and MILI are mouse PIWI proteins and EfPiwi is from a freshwater sponge; tags in brackets are library labels; higher = faster piRNA-guided slicing of the target
Conditions: guide: piRNA #1 5'p-UGAGGUAGUAGGUUGUAUAGUAUCCAGAGG; auxiliary factor: 500 nM mouse GTSF1
Summary of the method: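 Using HEPES–potassium acetate buffer at 33 °C, 1 nM active affinity-purified piRISC with a single synthetic guide was mixed with 0.1 nM transcribed, DNA-blocked target RNA library for 0–8 or 0–960 min, with or without 500 nM GTSF1 partner protein. Uncleaved targets were sequenced and normalised to depth and to weakly complementary targets, and three trials were pooled with k3 capped at 0.0001 min^-1. A burst-and-steady-state fit gave the pre-steady-state cleavage rate.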

Row | Sequence | pre-steady-state target cleavage rate
1 | GGAGACCUAUCUAUACUACCUACUUCCUCA | 0.0039 ± 0.0024
2 | GCUCUGGAUACUAUAGAACGUACUACCUCA | 0.154 ± 0.028
3 | GGACUGGAUUCUAAACAACCUACUACCUCA | 1.11 ± 0.095
4 | GGAGACCUACCUAUACAACCUACUACCUCA | 1.19 ± 0.16
5 | GGAGUGGAUACUAAACAUCCUACUACCUCA | 0.961 ± 0.057
6 | GGAGACCUUACUAUUGAACCUACUACCUCA | 0.116 ± 0.017
7 | CCACUGGAUACUAUACAACCAACUACCUCA | 0.189 ± 0.021
8 | GGAGACCUUACUAUACAACCUUCUUCCUCA | 0.124 ± 0.019
9 | GGACUGGAUACUAUACAACCUCCUACCUCA | 0.801 ± 0.052
10 | GGAGACCUAUGUAUACAACCUACUACCCCA | 0.216 ± 0.029
11 | GGAGACCUAUGAUAUGUCCCUACUACCUCA | < 0.0001
12 | GCUCUGGAUACUAUACAACCAUACUACCUCA | 0.00752 ± 0.0037
13 | GGAGUGGUUACUAUACAACCUACUACCACA | 0.427 ± 0.039
14 | GGAGACGAUACUAUACAAACUACUACCUCA | 0.912 ± 0.039
15 | GGAGAGGAUACUAUACAACCUACUACCCCA | 0.835 ± 0.075
16 | GGUCUGGAUACUAUACAACCUACUAGCCUCA | 0.606 ± 0.081
17 | GCUCUGGAAACAAUACAACCUACUACCUCA | 1.3 ± 0.074
18 | GCUCUGGAUACUAUACAACCUACUAACCUCA | 1.71 ± 0.11
19 | GGAGUGCAUACUAUACAACCUACAACCUCA | 0.36 ± 0.031
20 | GGUGUGGAUACUAUACAACCUACUUCCUCA | 0.0115 ± 0.0039
21 | GGAGACCUAUGAUAUCAUCCUACAACCUCA | < 0.0001
22 | GGUCUGGAUACUAUACCAACCUACUACCUCA | 0.177 ± 0.044
23 | GGAGAGGAUACAAUACAACCUAGUACCUCA | 0.261 ± 0.039
24 | GGACUGGUAUCUAUACAACCUACUACCUCA | 1.33 ± 0.12
